# According to the RNAGym collection of RNA variant scans (doi:10.7554/elife.90254):
# The source gives no read counts; variants with many changes may rest on few reads.
# B1: LINE1-mini (parent)
# chain: GGCAGAGCUCAACACAGCGUGGCAAAGUGGCUGUGGCUAGACUGCC
# Variants of: B1
# Assay: self-cleavage, relative activity (ratio to wild type); higher = more cleavage; in vitro, sequencing; the parent is a self-cleaving ribozyme
row,Variant,self-cleavage
1,C13U U28C G29C A41U,0.05
2,C13U U32C G35A,0.02
3,A14C G21U U34G U38A C42G,0
4,A14G A25C G40A C46A,0
5,A14G G29U G44U C45A,0.02
6,A14G G17U A25U U28G,0.03
7,A14C G29C U32A G36U G40C,0.16
8,A14C G30U G36A,0.05
9,A14G C23A C45U,0.74
10,A14G C23U U43C,0.18
11,A14C C31G C46U,0.01
12,A14C A16C C37A,0.03
13,A14C G22A G27C C42U,0.01
14,A14C G21U A41U,0.1
15,A14G A26U G29U,0.13
16,A14G G33C C42A,0.03
17,A14G G22C U28A,0.01
18,A14G U20C A24U G35U C37U,0.02
19,A14G G19U G35U,0.37
20,A14G G36A C46G,0.02
21,A14C C15U G40U,0.03

row,Variant,self-cleavage
1,A14G G19C G30U U43C,0.12
2,A14C G21U C46U,0.01
3,A14G G19C G21U C46U,0.12
4,A14G G19U G21U,0.47
5,A14G A24G G29U C45G C46U,0.03
6,A14C U28C A39C G40U,0.02
7,A14G A24G G30C A41C,0.06
8,A14C C15A G29C U34A A39G,0.01
9,A14C A24U G27U U38A,0.09
10,A14C C37U U43C G44C C46A,0.01
11,A14G A16G G22U,0.07
12,A14C G19A G21C G30A U32G,0.02
13,A14C G19U A26C,0.12
14,A14G G17A G19U,0.02
15,A14C U28C U34A C42U,0.03
16,A14C A16C G29A G33A,0.22
17,A14C C15G G17U G29C U34A,0.01
18,A14C C18G U34A,0.03
19,A14C G17U C31G G44U,0.02
20,A14C G22U C37A U43C,0.03
21,A14G G17U C18G,0.03

row,Variant,self-cleavage
1,A14G G30A C45G,0.23
2,A14C U28A G29A G30U,0.1
3,A14C G29U C46A,0.08
4,A14G C18A G30C,0.27
5,A14C U20G G22A A24U A25G,0.21
6,A14G G30A G44A,0.02
7,A14C C15G U32G,0.02
8,A14G C18A C23G C37G,0.02
9,A14C U34A A41C,0.01
10,A14C G17A C45A C46G,0.05
11,A14C C18G G35A,0.02
12,A14G G30C U34C,0.46
13,A14U A16C C31A C37G C42G,0.01
14,A14G C23U G40C C42G,0.09
15,A14G G21C A25U,1.25
16,A14G C15U G29C U34C G36C,0.05
17,A14C A26U G35A G36U,0.09
18,A14G G29A G30U,0.18
19,A14C G19U G35U U38G,0.02
20,A14G G29A G36U,0.04
21,A14C A16C A25C A39C,0.07

row,Variant,self-cleavage
1,A14G C15U C18A,0
2,A14G G30A C31G,0.02
3,A14C U20A G33A,0.06
4,A14C C18U U20C C31A,0.02
5,A14C G17U C45A,0.08
6,A14G A16U G30C U32A,0.01
7,A14G C18U G22A C37U,0.07
8,A14C G30C C31A G33A,0.06
9,A14G A26C G29C U32A G33C C42U,0.03
10,A14G A26U G40U,0.03
11,A14G C23G G33A,0.07
12,A14C A26G G27C C31A,0
13,A14G C15U C45U,0.04
14,A14G C18A U28C C45U,0.03
15,A14G G36U A41G,0.07
16,A14G G30U C31G C46G,0.01
17,A14G G17U C18A G19A U20C A26C A39C,0.01
18,A14C G30U G35U,0.05
19,A14G U32C G40U,0.01
20,A14C A16G U32G A39C,0.16
21,A14C U20G G35U C45U,0.05
